In paper PMC6555819:
This is one part of the list. At the low end of the ranking, values are background and their order means little.

test system: RARa:RXRa; settings: 270 nM : 90 nM RXRa, PBS pH 7.4, 2% milk, 0.02% Triton X-100, 1 mM DTT, BSA, 0.4 mg/ml salmon testes DNA; double strand, one strand shown

Row | Sequence | binding signal (PBM z-score against 500 random probes)
1 | GCTAGCCTAGGTCGTGCGGGCCAGTATAGTGTCGGCGCGATTGACAGCGTAGAATGAAGG | -0.17
2 | GCCGAACTAGGTCAGAACAGCACAGTGAAGGATGATGCGATTGACAGCGTAGAATGAAGG | 0.42
3 | GCAGTCAAATTTCAGGACGAGGTAACGTAAAGCACGGCGATTGACAGCGTAGAATGAAGG | 0.43
4 | GCTCATATAGATAAATGCTAGGTGAAAGTCCGATCTGCGATTGACAGCGTAGAATGAAGG | 0.49
5 | GCAGAATTAGGTTACCAAAGATCAGGGAAACGCTTGGCGATTGACAGCGTAGAATGAAGG | 0.34
6 | GCACTAGCAGGCCAAGTTTGGTTCACTCAAACAAAGGCGATTGACAGCGTAGAATGAAGG | 0.11
7 | GCTCATATCGGTAAATGCTAGGTGAAAGTCCGATCTGCGATTGACAGCGTAGAATGAAGG | 0.46
8 | GCAGAATCAGGTTACCAAAGATCAGGGAAACGCTTGGCGATTGACAGCGTAGAATGAAGG | 0.36
9 | GCCTACCAAGGTGAACAAGGTAGTTGATTACTATTCGCGATTGACAGCGTAGAATGAAGG | 0.46
10 | GCCCTACTGGGCCATCAGGACATTGATATCAACGTTGCGATTGACAGCGTAGAATGAAGG | 0.49
11 | GCTCTTGTAGATCGACAGGAGGTTAAGAAAGATCGAGCGATTGACAGCGTAGAATGAAGG | 0.46
12 | GCCCGACTGGGGCCAGGTTACCATAACGCACAGCCAGCGATTGACAGCGTAGAATGAAGG | 0.18
13 | GCGCTATTAGTTGAAAGGGAAACCGAATGATTCTCGGCGATTGACAGCGTAGAATGAAGG | 0.2
14 | GCATCTCTTGGTAACCAAGTTCAGTGAATGCCGAACGCGATTGACAGCGTAGAATGAAGG | 0.47
